Reference: PubChem BioAssay AID743255 (National Center for Advancing Translational Sciences (NCATS), 2014)
Out of some 390,000 compounds screened, about 910 (0.23%) were called active. Not shown: some 5% with an inconclusive outcome. The call rests on the fitted dose curve; in most records, active means well fitted inhibition curve with a large enough effect; inconclusive means small, poorly fitted or top-dose-only effect; inactive means no such curve, though single readings can be large or run the other way. Only a part is listed here, and it is no random draw.

These compounds were tested against Ubiquitin carboxyl-terminal hydrolase 1 (Homo sapiens) (UniProt O94782) (assay: Inhibitors of USP1/UAF1: Primary Screen). Settings: recombinant USP1/UAF1, Ub-Rhodamine cleavage fluorescence; activity change, negative = inhibition: at 57.1 µM (top of the series).
Summary of the method: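 Step one: compound is pinned into 1nM USP1/UAF1 in HEPES pH 7.8 buffer with TCEP. Step two: 15 min room-temperature incubation. Step three: Ub-Rho (150nM final) starts cleavage, tracked by fluorescence over six one-minute reads.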
Further: nearly all actives have a fitted effect of over 60% in size.
On the % scale 0 is the no-effect control and ±100 the full control effect; potency means the concentration at half of the fitted maximal effect.

UniProt O94782, sequence (O94782 whole entry, looked up): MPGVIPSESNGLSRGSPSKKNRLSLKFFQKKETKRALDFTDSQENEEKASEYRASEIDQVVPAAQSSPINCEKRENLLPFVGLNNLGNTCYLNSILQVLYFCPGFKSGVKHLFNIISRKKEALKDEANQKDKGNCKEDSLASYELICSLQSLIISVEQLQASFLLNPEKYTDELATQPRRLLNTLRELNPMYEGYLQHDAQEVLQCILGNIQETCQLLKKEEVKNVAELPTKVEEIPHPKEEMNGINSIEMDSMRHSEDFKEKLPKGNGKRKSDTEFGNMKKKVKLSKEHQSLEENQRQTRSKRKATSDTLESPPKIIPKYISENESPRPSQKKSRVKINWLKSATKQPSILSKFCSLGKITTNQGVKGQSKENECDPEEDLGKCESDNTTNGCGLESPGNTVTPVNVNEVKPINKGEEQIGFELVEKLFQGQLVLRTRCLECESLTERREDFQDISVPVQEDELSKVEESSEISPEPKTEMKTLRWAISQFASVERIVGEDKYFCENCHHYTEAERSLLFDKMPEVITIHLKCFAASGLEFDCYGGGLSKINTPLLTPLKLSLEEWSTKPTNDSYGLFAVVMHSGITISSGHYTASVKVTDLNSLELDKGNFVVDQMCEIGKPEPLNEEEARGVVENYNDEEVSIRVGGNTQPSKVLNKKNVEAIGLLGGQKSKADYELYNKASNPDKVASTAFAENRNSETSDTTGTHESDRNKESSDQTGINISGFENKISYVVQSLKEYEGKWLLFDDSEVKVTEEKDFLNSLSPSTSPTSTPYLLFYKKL

Activity change, negative = inhibition, inactive:
Cc1ccc(C)c(Cn2nc(-c3cc(C)ccc3C)ccc2=O)c1 -21.4%
Cn1c(=O)c(NCCc2ccccc2)c2c3c(cccc31)C(=O)c1ccccc1-2 74.4%
Cc1nnc(NC(=O)CSc2nccn2Cc2ccc(F)cc2)s1 -21.2%
C/C=C(\C)C(=O)NCCN1C2=NC[C@H](Cc3ccccc3)N2C[C@@H]1Cc1ccc(OC)cc1 -24.5%
Cc1ccc2c(c1)N(CC(=O)NCCc1ccc(Cl)cc1)C(=O)c1cccnc1O2 -14.5%
CC(=O)Nc1ccc(NC(=O)CSc2nc3ccccc3nc2N2CCCCC2)cc1 -20.1%
COC(C[C@@H]1O[C@@H]1C(=O)[C@@H](C)OCc1ccccc1)OC -18.5%
CN1CCN(C(=O)C2=C[C@H](c3ccc(C(F)(F)F)cc3)C[C@H](OCCCCO)O2)CC1 -20.6%
CC(C)NC(=O)CSc1cn(CC(=O)N2CCCCCC2)c2ccccc12 -27%
COC(=O)c1ccccc1NC(=O)Cn1nnc(-c2ccc(OC)cc2)n1 -13.5%
CCn1c(C)c(C)c2cc(C(=O)N3CCN(c4ccccc4)CC3)ccc21 -11.3%
COc1ccc([C@H]2C[C@@H](O)[C@H](n3cc(-c4ccc(F)cc4)nn3)CN2CC2CCCCC2)cc1 -5.36%
OCC[C@H]1C[C@H](O)[C@@H](O)[C@@]2(OCc3ccccc32)O1 -6.08%
OCC[C@H]1C[C@@H](O)[C@H](O)[C@]2(CCCO2)O1 -8.97%
O=C(Nc1cccc(F)c1)C1CCCN(S(=O)(=O)c2cccc3cccnc23)C1 (stereo not drawn) -23.6%
O=C(C[C@@H]1C/C=C/CC[C@@H](Cc2ccc(F)cc2)C(=O)O[C@@H](c2ccccc2)CNC1=O)NCCO -26.3%
CCC(C)[C@H]1CNCCN1CCc1cccc(F)c1 (stereo partly drawn) 17.8%
COc1ccc(NC(=O)C2=CC(c3ccco3)=NS(=O)(=O)N2C)cc1OC -8.63%
CC(C)(C)S(=O)(=O)/C(C#N)=N/Nc1ccc(S(N)(=O)=O)cc1 13%
CCOC(=O)N1CCN(C(=O)/C(=C\c2cccs2)NC(=O)c2cccs2)CC1 -18.2%
Cc1cccc(NC(=O)c2sc3nc(-c4cc5ccc(O)cc5oc4=O)[nH]c(=O)c3c2C)c1 308%
O=S(=O)(c1ccc2nc(N3CCN(c4ccccc4F)CC3)ccc2c1)N1CCCCC1 -21.4%
O=C1NC[C@H](c2ccccc2)OC(=O)[C@@H](Cc2ccc(F)cc2)C/C=C\C[C@H]1CC(=O)N(CCO)Cc1ccccc1 -23.9%
CC(C)(CS(=O)(=O)[O-])NC(=O)CC[N+](C)(C)CCO 35.1%
COc1ccc(-c2cc(C(F)(F)F)n3ncc(C(=O)NCC4CCCO4)c3n2)cc1OC (stereo not drawn) 28.9%
N#Cc1c(C(F)(F)F)cc(-c2cccs2)nc1SCC(=O)Nc1cccc(C(F)(F)F)c1 56.4%
CC(=O)c1cccc(NC(=O)C2CCN(S(=O)(=O)c3ccccc3)CC2)c1 -16.3%
CN(Cc1ccc(F)cc1)S(=O)(=O)c1nnc(NC(=O)c2ccccc2)s1 -11.6%
CC(=O)Nc1ccc(S(=O)(=O)NC2=C(N3CCN(Cc4ccccc4)CC3)C(=O)c3ccccc3C2=O)cc1 -15.6%
COc1ccc(S(=O)(=O)N(C)C[C@@H]2Oc3cc(Br)ccc3S(=O)(=O)N([C@H](C)CO)C[C@@H]2C)cc1 -26.9%
Cc1csc(=Nc2c(C)n(C)n(-c3ccccc3)c2=O)n1Cc1ccccc1 0.322%
O=C(O)CCCNC(=O)/C=C/c1ccco1 36.6%
COc1ccc(OC)c(CNC(=O)CCn2c(=O)c3cccn3c3ccc(F)cc32)c1 -8.43%
C[C@H]1NC(=O)[C@@]2(C)[C@@H](c3ccccc3)[C@H]3COc4ccccc4[C@@H]3N2C1=O -28.2%
CCc1nc(Nc2ccc3nccnc3c2)c2oc3ccccc3c2n1 316%
CC(C)(C)OC(=O)C[C@H]1C/C=C\C[C@@H](CC(=O)N[C@@H](CO)Cc2ccccc2)C(=O)NC[C@H](c2ccccc2)OC1=O -3.69%
C[C@H](CO)N1C[C@H](C)[C@H](CN(C)C(=O)c2cc(-c3ccccc3)on2)OCc2cnnn2CCCC1=O -9.9%
CCC(C)NC(=O)c1ccc2nc(Cc3ccc(OC)cc3)oc2c1 (stereo not drawn) -13.2%
c1ccc(CCCc2nc(-c3ccccn3)no2)cc1 29.5%
N#C/C(=C/C1=C(N2CCOCC2)C(=C/c2ccccc2)/CC1)C(=O)Nc1ccccc1F -7.87%
C[C@@H]1COC(=O)[C@@H](CC(=O)OC(C)(C)C)C/C=C\C[C@@H](CC(=O)N(CCO)Cc2ccccc2)C(=O)N1 -21.1%
C[C@@H]1CN([C@H](C)CO)C(=O)CCCn2nncc2CO[C@@H]1CN(C)S(=O)(=O)c1ccc(Cl)cc1 -19.7%
Cc1cccc(CNC(=O)Cn2ccc3cc(S(=O)(=O)N4CCCC4)ccc32)c1 -7.59%
O=C(C[C@@H]1C/C=C\C[C@H](NC(=O)OCC2c3ccccc3-c3ccccc32)C(=O)OC[C@@H]2CCCN2C1=O)N[C@@H](CO)Cc1ccccc1 -7.36%
CCC(C)OC(=O)/C(C#N)=C\c1ccc(-c2ccccc2Cl)o1 (stereo not drawn) 72.1%
CC(=O)n1c(C=Nc2ccc(Cl)cc2)c(O)c2ccccc21 -12.1%
CC[C@]12CCCN3CCc4c(n(c5ccccc45)[C@@](O)(C(=O)OC)C1)[C@@H]32 -17.6%
CC1C(=O)N2CCCc3cc(S(=O)(=O)N4CCC(C(N)=O)CC4)cc1c32 (stereo not drawn) -9.55%
C[C@@H]1CN([C@@H](C)CO)C(=O)CCCn2cc(nn2)CO[C@H]1CN(C)S(=O)(=O)c1ccc(Oc2ccccc2)nc1 -25.7%
C[C@@H]1CN([C@H](C)CO)C(=O)CCCn2cc(nn2)CO[C@H]1CN(C)S(=O)(=O)c1ccc2ccccc2c1 -18%
CCCC(=O)Nc1nnc(S(=O)(=O)N2CCCCCC2)s1 -8.46%
C[C@@H]1CCC[C@]2(O[C@@H](CCO)C[C@H](O)[C@H]2O)O1 2.8%
Nc1ccn([C@@H]2O[C@H](CO)[C@@H](O)[C@H]2O)c(=O)n1 -24%
O=C(COc1ccc(F)cc1)Nc1ccc(Cl)c(-c2nc3ccccc3[nH]2)c1 40.1%
C[C@@H]1CN([C@@H](C)CO)C(=O)CCCn2nncc2CO[C@H]1CN(C)Cc1ccc2c(c1)OCCO2 -15.7%
CSc1ccc(C2C(C(=O)c3ccco3)=C(O)C(=O)N2c2nnc(SC)s2)cc1 (stereo not drawn) 64.1%
CCN(CC)C(=O)COc1ccc(-c2nnc(Nc3ccc(OC)c(C(=O)NC)c3)c3ccccc23)cc1 0.0131%
CCc1ccc(NC(=O)c2cc(C)nn2-c2ccccc2)cc1 -19.4%
COc1ccccc1N1CCN(S(=O)(=O)c2c(C)sc3ncn(CC(=O)NCCN(C)C)c(=O)c23)CC1 -25.5%
COc1cccc(S(=O)(=O)N(C)C[C@@H]2OCc3cnnn3CCCC(=O)N([C@H](C)CO)C[C@@H]2C)c1 -26.2%
C[C@@H]1CN([C@H](C)CO)C(=O)CCCn2cc(nn2)CO[C@H]1CN(C)C(=O)Nc1ccccc1 -23.6%
C=CC[C@@H](Cc1ccc(F)cc1)C(=O)OC[C@H]1CCCN1C(=O)[C@@H](CC=C)CC(=O)N[C@H](CO)Cc1ccccc1 -9.05%
Cc1ccc(C(C(=O)NCc2ccccc2)N(C(=O)c2ccccn2)c2ccccc2)o1 (stereo not drawn) -10.4%
CCC(=O)Nc1nnc(S(=O)(=O)N2CCCCCC2)s1 3.34%
CCOC(=O)c1oc2c(c1C)-c1nn(Cc3ccccc3Cl)cc1CC2 19.6%
CCOC(=O)c1c(C)[nH]c(C(=O)OC/C(O)=C(\C#N)c2nc3ccccc3[nH]2)c1C -20.1%
COc1ccc(C(C)n2c(C)c3c(C)nnc(C)c3c2C)cc1 (stereo not drawn) -6.19%
CN(C(=O)CN1C(=O)CCSc2ccc(S(=O)(=O)N3CCCC3)cc21)c1ccccc1 -17.1%
COc1ccc(OC)c(/C=C/c2nc3ccccc3[nH]c2=O)c1 180%
COc1ccccc1-n1c(/C=C/c2c(C)n(C)c3ccccc23)nc2ccccc2c1=O 44.7%
COc1ccc(CN(C(=O)c2cc3ccccc3oc2=O)C2CCS(=O)(=O)C2)cc1OC (stereo not drawn) 2.07%
CC(C)(C)OC(=O)N[C@H]1C=C[C@H](OC(=O)CC(=O)OCC(F)(F)F)C1 -3.99%
Nc1ccc2nc3c(=O)n(C4CCCCC4)c(=O)[nH]c3nc2c1 102%
C[C@@H]1CN([C@H](C)CO)C(=O)CCCn2nncc2CO[C@H]1CN(C)C(=O)c1ccccc1 -30%
CCc1ccc(C(=O)CC2(O)C(=O)N(Cc3ccc(C)cc3)c3ccccc32)cc1 (stereo not drawn) 32.5%
CC(=O)Nc1ccc(N=Cc2c(O)c(C(=O)Nc3ccccc3)cc3ccccc23)cc1 -5.71%

Potency, inactive:
CN(C)CCC(c1ccccc1)c1ccccn1 (stereo not drawn)

Potency, active:
COc1ccc(C2CC(=O)N3CN(C4CCCCC4)CSC3=C2C#N)c(OC)c1 (stereo not drawn) 2.24 µM
CCOC(=O)/C(=C\c1ccc(N2CCC(c3ccccc3)=N2)cc1)C(C)=O 28.2 µM
COc1ccc(OC)c(/C=c2\sc3nc(-c4cccs4)nn3c2=O)c1 31.6 µM
CC(=O)N(C1=C(Cl)C(=O)c2ccccc2C1=O)c1ccc(C(=O)O)cc1 14.1 µM
Cc1ccc(C(=O)NNc2cc(N3CCCC3)nc(N3CCCC3)n2)cc1 14.1 µM
O=C(NCc1ccc(OC(F)(F)F)cc1)c1cccc2c1C(=O)c1ccc(N3CCCCC3)cc1S2(=O)=O 25.1 µM
O=C(c1ccco1)[C@@H]1[C@@H]2C(=O)N(c3ccc(Br)cc3)C(=O)[C@@H]2C2c3ccccc3C=CN21 (stereo partly drawn) 15.8 µM
CC(=O)Oc1oc(-c2ccccc2)nc1C=Nc1ccc(N(C)C)cc1 25.1 µM
Cc1cccc(N2C(=O)c3cccc4c(N)ccc(c34)C2=O)c1 28.2 µM
CCN(CC)c1ccc(/C=C(/C#N)C(=O)NC(C)C)o1 25.1 µM
Cc1[nH][nH]c(=O)c1C(c1c(C)[nH][nH]c1=O)c1cn(Cc2cccc3ccccc23)c2ccccc12 14.1 µM
